Test results from PubChem BioAssay AID1240 (Sanford-Burnham Center for Chemical Genomics, 2008).
Screen size: about 50,000 compounds; about 800 (1.6%) showed an effect of 50% or more. The list shows a part of the results.

Target: Bcl-2-like protein 10 (Homo sapiens) (UniProt Q9HD36)
Assay: Phenotype converters, Bcl-B/TR3 peptide binding displacement, primary biochemical FP (AID 1240);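 note: 0% = Bcl-B with tracer peptide and DMSO and 100% = tracer peptide lacking Bcl-B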
Conditions: GST-Bcl-B / FITC-TR3 peptide fluorescence polarization; stronger effect = higher value; compound at 3.75 mg/L

Sequence of UniProt Q9HD36 (Q9HD36 whole entry, looked up): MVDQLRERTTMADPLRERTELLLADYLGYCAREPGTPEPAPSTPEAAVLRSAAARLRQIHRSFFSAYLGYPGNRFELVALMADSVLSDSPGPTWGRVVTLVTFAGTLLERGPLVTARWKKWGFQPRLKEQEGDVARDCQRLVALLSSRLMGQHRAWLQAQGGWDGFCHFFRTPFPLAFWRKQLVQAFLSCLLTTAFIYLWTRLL

SMILES | displacement [%]
Cc1cc(C)cc(-n2c(C)cc(C=C3C(=O)NC(=O)NC3=O)c2C)c1 | 13.1
Cc1cc(N2CCNCC2)c2ccccc2n1 | -4.7
Cc1ccc(-n2c(/C=C/c3c[nH]c4ccccc34)nc3ccccc3c2=O)cc1 | -0.5
O=C1NC(=O)C(=Cc2cccc(OCCOc3ccc([N+](=O)[O-])cc3)c2)C(=O)N1 | -7.4
O=C(Cc1ccccc1)N1CCN(C2CCCC2)CC1 | -3.6
CN1CCN(/N=C/c2c(O)n(C)c(=O)n(C)c2=O)CC1 | -2.6
Cc1cc(C=C2C(=O)NC(=O)NC2=O)c(C)n1C1CCCCC1 | 124
O=C1c2ccccc2C(=O)N1CC1CS1 (stereo not drawn) | 15.1
O=C(O)C12C3CCCC1C32c1ccccc1 (stereo not drawn) | 21.9
CC(C)CCn1c(=O)c(C(=O)Nc2nc3ccc(Br)cc3s2)c(O)c2ccccc21 | 4.5
O=C1NC(=S)N(c2ccc(F)cc2)C(=O)/C1=C/c1ccc2c(c1)OCO2 | -4.8
O=C(c1ccccc1)c1cc(Cl)ccc1NC(=O)c1nc[nH]c1C(=O)N1CCCCC1 | -12.3
O=C1NC(=O)C(=Cc2ccc3c(c2)OCO3)C(=O)N1 | 0.3
CCOc1ccc(-n2c(-c3ccccn3)nc3ccccc3c2=O)cc1 | -10.2
O=[N+]([O-])c1ccc(N2CCNCC2)c2cccnc12 | 18.7
C=CCN1C(=O)NC(=O)/C(=C/c2ccc(N(C)C)c(Br)c2)C1=O | 7.5
CCC1(c2ccccc2)C(=O)NC(=O)N(C(=O)c2ccc(Cl)cc2)C1=O (stereo not drawn) | 3.8
COc1ccc(CCNCc2ccccn2)cc1 | -2.8
Cc1ccccc1C(=O)Nc1cc(Cl)c([N+](=O)[O-])cc1Cl | 29.5
COc1ccccc1CCNCc1cccc(Cl)c1 | -8.8
Cc1ccc(C(c2c(O)c3ccccc3oc2=O)c2c(O)c3ccccc3oc2=O)cc1 | 11.4
Cc1cc(-c2ccccc2)[n+]2cc(Br)ccc2n1 | 3.9
CCC(CC)N1CCN(Cc2cccc(Cl)c2)CC1 | -6.2

SMILES | displacement [%]
O=C1NC(=O)N(c2ccc3c(c2)OCO3)C(=O)/C1=C/c1ccc(OCc2cccc(C(=O)O)c2)cc1 | 12.1
CCCCSc1nc2ccccc2c(=O)n1-c1ccccc1OC | -4.3
O=[N+]([O-])c1cc2c(cc1CNCCc1c[nH]c3ccccc13)OCO2 | 13.9
OC12CCCCC1C(c1ccc(Br)cc1)NCC2 (stereo not drawn) | -7.4
CCOc1ccc(N2C(=O)CC(=O)NC2=S)cc1 | 4.1
O=C1NC(=O)N(c2ccccc2)C(=O)/C1=C\c1ccc(-c2ccc(C(=O)O)cc2)o1 | 12.3
CCCC1(c2ccccc2)C(=O)NC(=O)NC1=O | 1.1
O=[N+]([O-])c1ccc(N2CCCC2)c2ncccc12 | 21.6
O=c1c2ccccc2[nH]c(=S)n1-c1ccccc1 | -9.7
Cc1cccc(-n2c(/C=C3\C(=O)Nc4ccccc43)nc3ccccc3c2=O)c1 | 2.4
O=c1c2ccccc2nc(/C=C/c2ccc(O)c(O)c2)n1-c1ccccc1 | 1.9
O=[N+]([O-])c1cccc(CNCCc2cccc(Cl)c2)c1 | 11.2
O=[N+]([O-])c1cc(F)c(N2CCCCC2)cc1Br | -3
CCCNC(=O)C1CN1Cc1ccc(OC)cc1 (stereo not drawn) | 0.5
O=C(COc1ccc(Cl)cc1)N1CCN(Cc2cccc(F)c2)CC1 | 6.9
Cc1nc2ccccc2c(=O)n1-c1cccnc1 | 9
O=C1CC(=O)N(c2ccc(Br)cc2)C(=S)N1 | 4.1
O=C(/C=C/c1ccc(N2N=N2)cc1)/C=C/c1ccc(N2N=N2)cc1 | -0.9
O=C1NC(=O)N(c2ccccc2F)C(=O)/C1=C/c1ccc(-c2cc(C(=O)O)ccc2Cl)o1 | 11
N/C(=N\[N+](=O)[O-])N/N=C\c1ccc(-c2ccc(Cl)c([N+](=O)[O-])c2)o1 | 7.6
Cc1ccc(Sc2ccc(C=C3C(=O)N(C)C(=O)N(C)C3=O)o2)cc1 | 13.1
COc1ccc(O)c(CN2CCN(Cc3ccccc3Cl)CC2)c1 | -3.6
c1cc2c(cc1CCNC1CCCCCC1)OCO2 | -12.7

SMILES | displacement [%]
COc1ccc(-n2c(/C=C/c3c[nH]c4ccccc34)nc3ccccc3c2=O)cc1 | -10.4
O=c1c2cc(I)ccc2nc(/C=C/c2c[nH]c3ccccc23)n1-c1ccccc1 | 2.4
Cc1cc(C)cc(N2C(=O)NC(=O)/C(=C\C=C\c3ccco3)C2=O)c1 | -36.6
O=C1NC(=S)NC(=O)C1=Cc1ccc(OCc2cccc(C(=O)O)c2)cc1 | 13.6
Cc1cc(C)c(C(=O)C(C)N)c(C)c1 (stereo not drawn) | 9.3
O=C1C2(c3ccccc3)CN3CN(C2)CC1(c1ccccc1)C3 | 4
O=C(COc1ccc2ccccc2c1)N1CCN(Cc2ccc(F)cc2)CC1 | -4.3
O=c1c2ccccc2nc(/C=C/c2cccc([N+](=O)[O-])c2)n1-c1ccccc1O | 4.4
CCC1(C)CC(CCNCc2ccccc2)(c2ccc(C)cc2)CCO1 (stereo not drawn) | -1.5
CCCCC1(c2ccccc2)C(=O)NC(=O)NC1=O | 11.8
CN1C(=O)NC(=O)/C(=C/c2ccc(-c3ccc([N+](=O)[O-])cc3)o2)C1=O | 3.6
CCOP(=O)(OCC)C(=C(Cl)Cl)C(C(=O)OC)C(=O)OC | -9.7
CCCc1ccc(OCCNc2ccc([N+](=O)[O-])c3cccnc23)cc1 | 10
CC(C)c1ccc(N2C(=O)CC(=O)NC2=O)cc1 | -5.9
Cc1cc(/C=C2\C(=O)NC(=O)N(c3ccc(Cl)cc3)C2=O)c(C)n1C | 1.7
O=C1NC(=O)C(=Cc2ccccc2OCCOc2ccc([N+](=O)[O-])cc2)C(=O)N1 | 11.4
CCc1ccccc1N1C(=O)NC(=O)/C(=C\c2cc(C)n(C)c2C)C1=O | 87.7
O=C1NC(=O)C(=Cc2ccc(-c3ccc(C(=O)O)cc3)o2)C(=O)N1 | 12.4
Cc1ccc(NC(=O)C2C(C)(C)C2(C)C)cc1C | 6.9
COc1ccc(C=C2C(=O)NC(=O)NC2=O)c(OC)c1 | 11.9
Cn1c(O)c(/C=C2\C=CC=N2)c(=O)[nH]c1=O | 16.1
CN1C(=O)NC(=O)/C(=C/c2ccc(-c3ccc(C(=O)O)cc3)o2)C1=O | -83.9
CN1CCN(c2ccc([N+](=O)[O-])c(N3CCCCC3)c2)CC1 | -0.6

SMILES | displacement [%]
O=c1c2ccccc2nc(-c2ccccc2F)n1-c1ccc(Cl)cc1 | -4.2
O=C1C2CCN(CC2)C1Cc1ccccc1O (stereo not drawn) | 16.8
Cc1cc(C=C2C(=O)NC(=S)NC2=O)c(C)n1-c1ccc(Cl)cc1 | 36.9
O=C(Cc1ccccc1)N1CCN(C2CCN(Cc3ccccc3)CC2)CC1 | -4.1
COc1ccc(CCNCc2ccncc2)cc1 | 7.1
O=C(CSCc1nc2ccccc2c(=O)n1-c1ccccc1Cl)Nc1ccccc1 | -9.9
c1ccc(C2CC3CC4(CCCC4)N2O3)cc1 (stereo not drawn) | 9.1
COc1ccc(CN2CCN(C(C)C)CC2)c(OC)c1 | -12.5
COc1ccccc1-n1c(/C=C/c2ccccc2O)nc2ccccc2c1=O | -6
O=C(N1CCN(C(c2ccccc2)c2ccccc2)CC1)C(O)(c1ccccc1)c1ccccc1 | -5.2
Cc1ccc(-c2nc3ccccc3c(=O)n2-c2cccc(C)n2)cc1 | 10
CN1C(=O)NC(=O)/C(=C/c2ccc(I)o2)C1=O | 9.2
Cc1ccc(S(=O)(=O)Oc2ccccc2C=C2C(=O)NC(=O)NC2=O)cc1 | -8.7
O=C1CC(=O)N(c2ccc(F)cc2)C(=S)N1 | 3
Cc1cc(OCC(=O)OCc2ccccc2)c2c3c(c(=O)oc2c1)CCCC3 | 3.5
COc1ccccc1CNCCc1ccc(Cl)cc1 | 15.5
O=C(COc1ccc2ccccc2c1)N1CCN(C2CCCC2)CC1 | 12.7
CCCOC1NC(=N[N+](=O)[O-])NC1OCCC (stereo not drawn) | -0.6
CCCC(=O)c1ccc(N2CCN(C)CC2)c(F)c1 | -7.2
O=[N+]([O-])c1ccc(N2CCCCCC2)c(F)c1Br | 2.4
O=C1CC(=O)N(c2ccc(Cl)cc2)C(=O)N1 | 5.6
O=C1c2ccccc2NC(c2ccccc2F)N1c1ccccc1 (stereo not drawn) | -0.3
CCOc1ccc(N2C(=O)/C(=C/c3ccc(Br)o3)C(=O)NC2=S)cc1 | -89.8

SMILES | displacement [%]
CC1=NN(c2ccccc2)C(=O)/C1=C/c1c(O)[nH]c(=O)[nH]c1=O | 9.6
O=[N+]([O-])c1ccc(NCCOc2cccc3ccccc23)c2ncccc12 | 12.1
Cn1cc(/C=C2\C(=O)NC(=O)N(Cc3ccccc3)C2=O)c2ccccc21 | 99.3
COc1cc([N+](=O)[O-])cc(/C=C2/C(=O)NC(=O)N(C)C2=O)c1O | 2.3
COc1ccccc1CN1CCN(Cc2cc(Br)ccc2O)CC1 | 5.5
C=C(C)Cn1c(=O)n(CC2CS2)c2ccccc21 (stereo not drawn) | 2.8
COc1cccc(CN2CCN(C(=O)COc3ccccc3)CC2)c1OC | -24.7
CSc1nc2ccccc2c(=O)n1-c1cccc(C)c1 | -6.2
O=[N+]([O-])c1cc(F)c(N2CCOCC2)cc1Br | -0.6
CCc1nc2ccccc2c(=O)n1-c1cccc(O)c1 | 11.7
Cc1cc(OCC(=O)c2ccc(F)cc2)c2c3c(c(=O)oc2c1)CCCC3 | -6
CCCCn1c(=O)c(C(=O)Nc2ccccc2Br)c(O)c2ccccc21 | 1.5
COc1ccc(CN2CCN(C(C)C)CC2)c(OC)c1OC | -21.1
Cc1ccc(S(=O)(=O)ON2CC2(C(F)(F)F)C(F)(F)F)cc1 (stereo not drawn) | 8.7
O=C(COc1ccc(Cl)cc1)N1CCN(Cc2ccc([N+](=O)[O-])cc2)CC1 | 5.3
S=C(Nc1cccc2ccccc12)NC1CN2CCC1CC2 (stereo not drawn) | -1.5
COc1cc(C=C2C(=O)NC(=O)NC2=O)ccc1OCc1ccc(C(=O)O)cc1 | 0.6
Cc1ccccc1N1C(=O)CC(=O)N(c2ccccc2C)C1=S | 10
O=c1c2ccccc2nc(-c2ccco2)n1-c1ccncc1 | -8.5
COC(=O)C1C2C(=O)N(c3ccc([N+](=O)[O-])cc3)C(=O)C12c1ccc(Cl)cc1 (stereo not drawn) | -4.6
Cc1ccc(S(=O)(=O)Oc2ccccc2C=C2C(=O)N(C)C(=O)N(C)C2=O)cc1 | 6.1
